Reference: the supplement of paper PMC11417369
± gives the standard deviation of the averaged measurements. The list shows a part of the results.

Test system: PfAP2-LT AP2 domain (GST-tagged)
Assay: gcPBM binding intensity (ln(normalized median fluorescence intensity)); higher = stronger DNA binding
Procedure, shortened: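 An Agilent 4 × 180k array carrying primer-extended double-stranded 36-bp intergenic genomic probes and negative controls received GST-tagged P. falciparum DNA-binding domains expressed in E. coli, about 25 μg on average, for 1 h. The binding buffer contained 1× PBS, 1% milk, 0.2 mg/ml BSA, 0.5% salmon testes DNA and 0.03% Triton X-100. Binding intensity is the top Masliner-normalised natural-log median intensity across replicate spots of either probe orientation, read after Alexa488 anti-GST antibody staining and a 488 nm scan.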

| Sequence | gcPBM binding intensity (ln) |
| --- | --- |
| TAAATAAATACATACACACACATACATATATATATA [CACACA_site3129] | 9.62 ± 0.36 |
| TTATTGTTTATTAAATGTACAGATTCGTTAAAATTA [XGTACX_site3041] | 8.37 ± 0.38 |
| TTTTTATTGAGAACAGTGCAAATAACAAAAAAAAAA | 8.66 ± 0.52 |
| ATTTGGCATAAACACACACACACACCCACCCACATA [CACACA_site8096] | 10.1 ± 0.37 |
| TTATAATAAATATGAAGTACTATAAATATGGTATAT [XGTACX_site5448] | 8.72 ± 0.41 |
| CACTAAAATGGACACACACACACACCGATATATATA [CACACA_site6139] | 10.1 ± 0.23 |
| AATAAATATAGGAATACACACAATATAAATGTATTG [CACACA_site3366] | 9.07 ± 0.4 |
| ATCGCATAAAGACAAGAACACACATATATATTGTAG [CACACA_site9229] | 9.03 ± 0.37 |
| CATATATAAAATATATGTACTTATAGAACATAATTT [XGTACX_site1936] | 8.57 ± 0.42 |
| CATTTTTTAAGCATCACACACGAAAGAACAAAGTGG [CACACA_site4755] | 8.94 ± 0.35 |
| TTTTTTTTTTTAAGGTGTACAATAAAAATTTATGCA [XGTACX_site8860] | 8.23 ± 0.35 |
| TGGAAAATTATAAGGTGTACATATAAGCTATTATAT [XGTACX_site118] | 8.76 ± 0.47 |
| AGTATACATTCATTTTGTACTCAATGATTTGATAAC [XGTACX_site6787] | 8.81 ± 0.37 |
| ATAATTATATTCCATACACACATATATTTAAAGGTT [CACACA_site2957] | 8.96 ± 0.32 |
| TAATAAGTATAAAATAGTACATATAAATATATCAAA [XGTACX_site8834] | 8.81 ± 0.39 |
| AGGAATAAATAATTAACACACACAATCTTTTTTTTT [CACACA_site9027] | 9.13 ± 0.35 |
| ACTTTTTCACATAAAAATGATCCGATTAGTAATAAT [XGTACX_negctrl_site248] | 8.51 ± 0.26 |
| AAATAAAAAAACTATTGTACTGAATACAAATTAAAT [XGTACX_site3793] | 8.73 ± 0.42 |
| ATAATATTAGTAAACACACTCAAATTATATATGATA [CACACA_site5721] | 8.68 ± 0.43 |
| CTGAGGAAGCTAATTACACACATGCATATTTTTTTT [CACACA_site2177] | 9.08 ± 0.28 |
| ATTATCTTCAAGTATGTACACACTATATATAATAAA [CACACA_site2441] | 8.9 ± 0.47 |
| ATCAAACAAAAAATAAAAAAATGCGACATGTGTACA [TGCATGCA_negctrl_site164] | 8.99 ± 0.49 |

| Sequence | gcPBM binding intensity (ln) |
| --- | --- |
| TATAAAATTTAAATTATACACACTTAAGTAACATCA [CACACA_site531] | 8.68 ± 0.38 |
| TTAATATTTTTAATTTGTACATATAATTAAATCTCT [XGTACX_site1736] | 8.53 ± 0.51 |
| GAAAATTATGTATATTGTACAAATATTATATTAAAT [XGTACX_site2467] | 8.68 ± 0.51 |
| TTGAATACATATATATGTACATATTCTATGGTTAGA [XGTACX_site4088] | 8.86 ± 0.36 |
| CAAGGACAATTTACAAACATAATATATGTATATATA [TGCATGCA_negctrl_site5] | 8.66 ± 0.55 |
| AATATATATTCATGTGTACACACAAAAAAAAATAAA [CACACA_site8690] | 9.56 ± 0.4 |
| CCTATAATTAGGGGTAGTACACAAAAAAAAAAAAAA [XGTACX_site6396] | 8.59 ± 0.52 |
| TTAAAAAAGAATTGTGCACACACAAAAAATGTTCAT [CACACA_site1102] | 9.12 ± 0.45 |
| AATTCCTTATACAATTGTACATAAAAAGAATAAAAA [XGTACX_site1343] | 8.6 ± 0.42 |
| TTTTTTTTACATGAACGTACATAATATATTTTATAA [XGTACX_site5249] | 8.45 ± 0.41 |
| TGGTGTTTTTTTTAATGTACTTATAAAATAATACAT [XGTACX_site6574] | 8.7 ± 0.32 |
| ATGTAAAAATAAAGATGTACATGTATATATATATAT [XGTACX_site5193] | 9.88 ± 0.46 |
| AATCAAATATTTAAATGTACTCAAGAAGGCTTAATC [XGTACX_site6907] | 8.74 ± 0.29 |
| AAAAAATATTTTAGTGGTACATTTGTAGCTCTCAAA [XGTACX_site4859] | 8.51 ± 0.52 |
| ATAACATGAACATATGTTACACAAACATACATACAT [XGTACX_negctrl_site365] | 9.13 ± 0.26 |
| TATGAAGACACAAATACACACACTCAAAAAAAAAAA [CACACA_site2660] | 9.41 ± 0.44 |
| AAAAATATAATATAATGTACACAAAAAAAAAAAATC [XGTACX_site1427] | 8.98 ± 0.54 |
| GAAAAAAAAAAAAAAAAACACACGGTACATTCAAAG [CACACA_site303] | 8.83 ± 0.55 |
| AAAAAGAAGATGCAAACATGCACACAGAAAAAAAAA [TGCATGCA_site375] | 9.09 ± 0.59 |
| AAAAAAAAAAAAATTACACACATACAGATAATAATA [CACACA_site5244] | 9.07 ± 0.4 |
| TAATTTTTTTTTTTTTTTTTTTTTTTTTTTTTTTTA [CACACA_negctrl_site1218] | 8.16 ± 0.55 |
| TTTTCATTCCACAACGCACACCCATTTAAAAAAAAA [CACACA_site1377] | 8.81 ± 0.26 |
